Laboratory results from ChEMBL document CHEMBL4888484, “Replenishing the malaria drug discovery pipeline: Screening and hit evaluation of the MMV Hit Generation Library 1 (HGL1) against asexual blood stage Plasmodium falciparum ,using a nano luciferase reporter read-out” (2022).
In all, about 150,000 compounds went through this assay and about 540 (0.36%) showed an effect of 50% or more. This is one part of the list.

Each compound was assayed on Plasmodium falciparum (assay: Primary screen in NF54 nanoGlo assay, in single point, at 2uM, 72h; a lower Z score goes with more inhibition). Settings: timepoint 72 hour.
Format: functional, Erythrocyte

Point of comparison: COc1ncc(-c2c(-c3ccccc3)ncn2CCNC(C)=O)cn1, “% Inhibition” value -18%. Against it:
- Cc1ccccc1NC(=O)C1CCC(CNS(=O)(=O)c2ccc3c(c2)C(C)(C)C(=O)N3C)CC1 (stereo not drawn) — the same, -18%
- Cc1cc(NC(=O)c2cnn(C)c2)cnc1N1CCCC[C@@H]1C — higher, -10%
- COCc1c(C(=O)NCC(C)(C)N2CCOCC2)cnn1-c1ncc(C)c(-c2cccs2)n1 — higher, -10%
- CCCCCS(=O)(=O)N1CCC[C@H]1c1cnn(C)c1C — higher, -15%
- NC(=O)CN1CCOc2c1ccc(F)c2F — higher, -5%
- Cc1noc(C)c1CO[C@H]1CCOC[C@H]1NS(=O)(=O)N1CCCCC1 — higher, -16%
- COc1cc(F)c(-c2nc3c(cnn3Cc3ccncc3)[nH]2)cc1OC — higher, 4%
- COc1ccc(C(=O)N(CC(=O)N2CCN(c3ccc(-c4ccc(OC)cc4)nn3)CC2)[C@@H](C)c2ccccc2)cc1 — higher, -8%
- CCC(=O)N1CCc2sc(S(=O)(=O)Nc3ccc(F)c(C)c3)cc2C1 — higher, 3%
- Cc1nccn1CCCC(=O)N1CC[C@](C)(O)[C@H](C)C1 — higher, -4%
- CCC(CC)NCc1cc(Br)ccc1OC — higher, -3%
- CC(C)c1nnc2n1CCC1(CC2)CCN(C(=O)Nc2ccccc2)CC1 — higher, -8%
- COc1ccccc1CN1CCC(CN(Cc2cccc(OCCO)c2)CC(C)C)CC1 — higher, -6%
- COc1ccc(CN2CCCS(=O)(=O)CC2)cc1OCc1ccccc1 — higher, -5%
- Cc1cc(C(=O)N2CCOCC2)cc2c1N(C)S(=O)(=O)c1ccccc1-2 — higher, 7%
- COC1(C)CC(Nc2nc(N)c3cnn(C)c3n2)C1(C)C (stereo not drawn) — higher, -9%
- CC(C)[C@@H](C#N)N1CCN(C(=O)c2cccc(-n3ccnc3)c2)CC1 — higher, -7%
- N#Cc1ccc(C(=O)NCc2nccn2CCCc2ccccc2)[nH]1 — higher, 0%
- CCN(c1ccccc1)S(=O)(=O)c1cc(-c2nc(C)cs2)sc1C — higher, -6%
- CNc1snc(C)c1C(=O)N1CCN(Cc2ccc(-c3cccc(F)c3)s2)CC1 — higher, 2%
- Cc1noc(C)c1C(=O)NCc1ccnc(-c2cccnc2)c1 — higher, -6%
- CCOC(=O)c1cnn(-c2ccccn2)c1CN1CCC(O)(c2cccc(C(F)(F)F)c2)CC1 — higher, 5%
- NC1(c2noc(Cn3ncc4ccccc4c3=O)n2)CCC1 — higher, 15%
- CC#CC[N+](C)(CC#CC)CC(=O)c1ccccc1 — higher, -1%
- c1ccc(Cn2c(CN3CCCCC3)nc3ccccc32)cc1 — higher, -12%
- O=C(NCc1cncc(-c2ccoc2)c1)Nc1ccccc1C(F)(F)F — higher, 9%
- COCc1nc2n(n1)[C@@H](c1ccc(C(C)C)cc1)C[C@@H](C)N2 — higher, 9%
- CC(C)CCn1c(N2CCC[C@H](C(=O)NC3CC3)C2)nc2ccccc21 — higher, -5%
- O=C(NCCCN1CCOCC1)c1nnc(Cc2ccccc2Cl)o1 — higher, 2%
- Cc1cccc2nc(C(=O)N(C)Cc3ncon3)c(F)n12 — higher, -1%
- Cc1ccc(N2CCN(Cc3nc(C(=O)NCC4CC4)co3)CC2)cc1 — higher, -9%
- CCS(=O)(=O)NCc1ccc(F)c(C)c1 — higher, -3%
- O=C(CN1C(=O)NC2(CCCCCCC2)C1=O)NC1CC1 — higher, 17%
- COc1ccc(N(C)Cc2nnc(-c3ccco3)o2)cc1OC — higher, 0%
- CS(=O)(=O)CCC(=O)Nc1ccc(F)c(Br)c1 — higher, 8%
- CC[C@H]1CC[C@@H](C)N(C(=O)c2ccc3[nH]c(=O)[nH]c3c2)C1 — higher, -12%
- Cc1ccc(CNC(=O)[C@@H](C)C2CCOCC2)cc1C — higher, 30%
- CC(C)c1cc(C(=O)N2CCNCC2)n(C)n1 — higher, -7%
- Cc1ccc(CNC(=O)C2CCN(S(=O)(=O)c3ccc4c(ccn4C)c3)CC2)o1 — lower, -22%
- N#Cc1ccc(F)cc1CN1CCN(C(=O)CN2CCOCC2)CC1 — higher, -9%
- CC(=O)N[C@@H]1C[C@H](CCc2ccccc2)O[C@H](c2cnn3cccnc23)C1 — higher, 0%
- Cc1ccccc1[C@H]1CN(C(=O)C2(C)CCNCC2)C[C@@H]1C(=O)O — higher, 2%
- CN1CCC[C@H](CN(CCc2ccccc2)C(=O)Cn2cncn2)C1 — higher, -5%
- Cc1c(NC(=O)N[C@@H](C)c2nc(CC(C)C)no2)cc2[nH]cnc2c1C — higher, -12%
- NC(=O)[C@@H]1CCCCN1C(=O)CNC(=O)CC1CCCCC1 — higher, -13%
- N#Cc1ccc(C(=O)NCc2cc(-c3ccccc3F)no2)cn1 — higher, -1%
- O=S(=O)(CC1CCC1)N1CC2(CCCO2)C1C1CC1 (stereo not drawn) — higher, -4%
- CN(C)[C@H]1CCC[C@@H]1Nc1nnc(-c2ccccc2)s1 — higher, -11%
- O=C(CN1C(=O)C2CC=CCC2C1=O)N1CCN(c2ncccn2)CC1 (stereo not drawn) — higher, 0%
- CCn1cc(CN2CC[C@H](CO)[C@H](NC(=O)c3cccnc3)C2)cn1 — higher, -6%
- O=C(C[C@@H]1OCCc2ccccc21)NCCC(=O)N1CCCCCC1 — higher, 2%
- CC1CCC(C)C(NC2=NS(=O)(=O)c3ccccc32)C1 (stereo not drawn) — higher, 32%
- Cc1c(C(=O)N2CCN(c3ccccc3Cl)CC2)nnn1C1CCNCC1 — higher, -13%

Point of comparison: CCS(=O)(=O)NCc1ccc(F)c(C)c1, Z score 0.29. Against it:
- Cc1ccccc1NC(=O)C1CCC(CNS(=O)(=O)c2ccc3c(c2)C(C)(C)C(=O)N3C)CC1 (stereo not drawn) — higher, 1.78
- Cc1cc(NC(=O)c2cnn(C)c2)cnc1N1CCCC[C@@H]1C — higher, 1.31
- COCc1c(C(=O)NCC(C)(C)N2CCOCC2)cnn1-c1ncc(C)c(-c2cccs2)n1 — higher, 1.52
- CCCCCS(=O)(=O)N1CCC[C@H]1c1cnn(C)c1C — higher, 2.23
- NC(=O)CN1CCOc2c1ccc(F)c2F — higher, 0.77
- Cc1noc(C)c1CO[C@H]1CCOC[C@H]1NS(=O)(=O)N1CCCCC1 — higher, 1.72
- COc1cc(F)c(-c2nc3c(cnn3Cc3ccncc3)[nH]2)cc1OC — lower, -0.6
- COc1ccc(C(=O)N(CC(=O)N2CCN(c3ccc(-c4ccc(OC)cc4)nn3)CC2)[C@@H](C)c2ccccc2)cc1 — higher, 0.99
- CCC(=O)N1CCc2sc(S(=O)(=O)Nc3ccc(F)c(C)c3)cc2C1 — lower, -0.52
- Cc1nccn1CCCC(=O)N1CC[C@](C)(O)[C@H](C)C1 — higher, 0.77
- CCC(CC)NCc1cc(Br)ccc1OC — higher, 0.5
- CC(C)c1nnc2n1CCC1(CC2)CCN(C(=O)Nc2ccccc2)CC1 — higher, 0.75
- COc1ccccc1CN1CCC(CN(Cc2cccc(OCCO)c2)CC(C)C)CC1 — higher, 0.95
- COc1ccc(CN2CCCS(=O)(=O)CC2)cc1OCc1ccccc1 — higher, 0.97
- Cc1cc(C(=O)N2CCOCC2)cc2c1N(C)S(=O)(=O)c1ccccc1-2 — lower, -0.9
- COC1(C)CC(Nc2nc(N)c3cnn(C)c3n2)C1(C)C (stereo not drawn) — higher, 1.57
- CC(C)[C@@H](C#N)N1CCN(C(=O)c2cccc(-n3ccnc3)c2)CC1 — higher, 0.68
- N#Cc1ccc(C(=O)NCc2nccn2CCCc2ccccc2)[nH]1 — lower, -0.03
- CCN(c1ccccc1)S(=O)(=O)c1cc(-c2nc(C)cs2)sc1C — higher, 0.68
- CNc1snc(C)c1C(=O)N1CCN(Cc2ccc(-c3cccc(F)c3)s2)CC1 — lower, -0.21
- Cc1noc(C)c1C(=O)NCc1ccnc(-c2cccnc2)c1 — higher, 0.89
- CCOC(=O)c1cnn(-c2ccccn2)c1CN1CCC(O)(c2cccc(C(F)(F)F)c2)CC1 — lower, -0.65
- NC1(c2noc(Cn3ncc4ccccc4c3=O)n2)CCC1 — lower, -1.25
- CC#CC[N+](C)(CC#CC)CC(=O)c1ccccc1 — lower, 0.07
- c1ccc(Cn2c(CN3CCCCC3)nc3ccccc32)cc1 — higher, 1.55
- O=C(NCc1cncc(-c2ccoc2)c1)Nc1ccccc1C(F)(F)F — lower, -1.15
- COCc1nc2n(n1)[C@@H](c1ccc(C(C)C)cc1)C[C@@H](C)N2 — lower, -1.12
- COc1ncc(-c2c(-c3ccccc3)ncn2CCNC(C)=O)cn1 — higher, 1.56
- CC(C)CCn1c(N2CCC[C@H](C(=O)NC3CC3)C2)nc2ccccc21 — higher, 0.5
- O=C(NCCCN1CCOCC1)c1nnc(Cc2ccccc2Cl)o1 — lower, -0.27
- Cc1cccc2nc(C(=O)N(C)Cc3ncon3)c(F)n12 — lower, 0.13
- Cc1ccc(N2CCN(Cc3nc(C(=O)NCC4CC4)co3)CC2)cc1 — higher, 1.36
- O=C(CN1C(=O)NC2(CCCCCCC2)C1=O)NC1CC1 — lower, -1.94
- COc1ccc(N(C)Cc2nnc(-c3ccco3)o2)cc1OC — lower, -0.01
- CS(=O)(=O)CCC(=O)Nc1ccc(F)c(Br)c1 — lower, -1.1
- CC[C@H]1CC[C@@H](C)N(C(=O)c2ccc3[nH]c(=O)[nH]c3c2)C1 — higher, 1.16
- Cc1ccc(CNC(=O)[C@@H](C)C2CCOCC2)cc1C — lower, -0.61
- CC(C)c1cc(C(=O)N2CCNCC2)n(C)n1 — higher, 0.76
- Cc1ccc(CNC(=O)C2CCN(S(=O)(=O)c3ccc4c(ccn4C)c3)CC2)o1 — higher, 3.44
- N#Cc1ccc(F)cc1CN1CCN(C(=O)CN2CCOCC2)CC1 — higher, 1.16
- CC(=O)N[C@@H]1C[C@H](CCc2ccccc2)O[C@H](c2cnn3cccnc23)C1 — lower, -0.03
- Cc1ccccc1[C@H]1CN(C(=O)C2(C)CCNCC2)C[C@@H]1C(=O)O — lower, -0.32
- CN1CCC[C@H](CN(CCc2ccccc2)C(=O)Cn2cncn2)C1 — higher, 0.56
- Cc1c(NC(=O)N[C@@H](C)c2nc(CC(C)C)no2)cc2[nH]cnc2c1C — higher, 1.79
- NC(=O)[C@@H]1CCCCN1C(=O)CNC(=O)CC1CCCCC1 — higher, 1.31
- N#Cc1ccc(C(=O)NCc2cc(-c3ccccc3F)no2)cn1 — lower, 0.15
- O=S(=O)(CC1CCC1)N1CC2(CCCO2)C1C1CC1 (stereo not drawn) — higher, 0.66
- CN(C)[C@H]1CCC[C@@H]1Nc1nnc(-c2ccccc2)s1 — higher, 1.49
- O=C(CN1C(=O)C2CC=CCC2C1=O)N1CCN(c2ncccn2)CC1 (stereo not drawn) — lower, -0.08
- CCn1cc(CN2CC[C@H](CO)[C@H](NC(=O)c3cccnc3)C2)cn1 — higher, 0.86
- O=C(C[C@@H]1OCCc2ccccc21)NCCC(=O)N1CCCCCC1 — lower, -0.28
- CC1CCC(C)C(NC2=NS(=O)(=O)c3ccccc32)C1 (stereo not drawn) — lower, -3.62
- Cc1c(C(=O)N2CCN(c3ccccc3Cl)CC2)nnn1C1CCNCC1 — higher, 1.18
